Measured values as given in the supplement of paper PMC3334620.
The full ranking holds about 33,000 sequences; the median of “E-score (-0.5 to 0.5)” is about -0.04, and the highest 2% start at about 0.36. Some of the results follow.

What follows are sequences tested against T1, Hmlalpha2 (UniProt P0CY09) (assay: PBM E-score (8-mer binding enrichment) (E-score (-0.5 to 0.5)); higher = stronger / more preferred TF binding; most listed sequences are background and not binding sites). Conditions: protein concentration: 200 nM; construct: GST-full length.
T1 sequence: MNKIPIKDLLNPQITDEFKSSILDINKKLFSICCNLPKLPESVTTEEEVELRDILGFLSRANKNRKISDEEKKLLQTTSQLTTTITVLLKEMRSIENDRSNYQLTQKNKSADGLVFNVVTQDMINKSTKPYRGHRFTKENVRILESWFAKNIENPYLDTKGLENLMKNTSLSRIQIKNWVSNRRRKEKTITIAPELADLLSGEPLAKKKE
Procedure, shortened: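 Masliner-normalised scans of fluorescent anti-GST signal were the basis for scoring. That signal came from GST-tagged yeast transcription factors applied at about 100-200 nM to double-stranded universal all-10-mer Agilent arrays on fresh or once-stripped slides. Each ungapped eight-base word, pooled with its reverse complement, received an E-score from the Universal PBM Analysis Suite.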

| Sequence | PBM E-score |
| --- | --- |
| AGGTAGCG | -0.0962 |
| TACACATA | 0.408 |
| ACGCCGGC | -0.124 |
| GCATATGC | -0.119 |
| AGCAAGAG | -0.0688 |
| AGAATGTA | 0.27 |
| GGTTGCAA | 0.059 |
| CCCGAACA | -0.123 |
| ATTGGTTA | 0.145 |
| AATAGCCC | -0.116 |
| AACTGCTT | -0.164 |
| CGGAAATA | -0.0562 |
| TACGCGGA | 0.312 |
| ACGCCGCG | 0.00844 |
| CGAAATTC | -0.0848 |
| AAGTACCT | 0.0583 |
| ATGCTGGC | 0.0473 |
| ACGATCAC | -0.02 |
| CGTCCCGA | -0.229 |
| CCCTAGAA | -0.0707 |
| ACACGTAT | 0.369 |
| CAGAACGG | -0.0445 |

| Sequence | PBM E-score |
| --- | --- |
| GACTATAA | -0.0236 |
| AACCACCC | -0.288 |
| ACTGATCC | 0.0264 |
| GCAAAACC | -0.272 |
| AAACAAAT | 0.23 |
| CTGAAACC | -0.0244 |
| AATCACAG | 0.1 |
| CAATTACG | 0.349 |
| CTACCGAC | -0.135 |
| ATTTTGAC | 0.245 |
| AAAACGGT | -0.0483 |
| GCCCAGCC | -0.296 |
| ACATACGC | 0.314 |
| GGCGTAAC | -0.0908 |
| AAATACTT | 0.208 |
| ATGATACA | 0.269 |
| ACTGAATA | 0.0738 |
| AACCCGCT | -0.252 |
| AACGACTA | 0.168 |
| AGAGACCA | -0.139 |
| CTTAGGTA | 0.0231 |
| CGAGGTAA | 0.0107 |

| Sequence | PBM E-score |
| --- | --- |
| TCCGGCAA | -0.0191 |
| TGTAAGAA | 0.391 |
| CAATCACG | 0.0452 |
| AATAATGG | -0.0485 |
| TAACTAGA | 0.17 |
| GGTAGATA | -0.00887 |
| CGGTTATC | -0.179 |
| ATAAACAG | 0.0861 |
| CACACAAC | 0.27 |
| ACTGCCGA | -0.0659 |
| GCTACAGC | -0.125 |
| GATTGGCC | -0.226 |
| AAACAGTT | -0.00224 |
| GCCCCCCA | -0.349 |
| ACTTTTCT | -0.145 |
| ATGCTGCA | 0.0587 |
| AAGACTCA | -0.146 |
| AGTTGCAA | 0.121 |
| ACGCACTC | 0.128 |
| AAACTTGA | 0.00597 |
| AGTAGCAT | -0.00144 |
| AAGAGCCT | -0.187 |

| Sequence | PBM E-score |
| --- | --- |
| AACGTGTG | 0.233 |
| ATGCTAAG | 0.027 |
| CTCCAATC | -0.344 |
| CAGACACG | 0.0667 |
| GCCCAACC | -0.0785 |
| ATATTGTC | 0.0872 |
| TCTTAAGA | -0.132 |
| ATATCTAA | 0.0783 |
| AAATCGGG | -0.138 |
| CTCGGAGA | -0.267 |
| GTCAGATA | -0.0706 |
| ACGCTCAC | 0.00619 |
| GATACAGC | -0.1 |
| CTGATTGC | -0.187 |
| GAACTACC | -0.0864 |
| ATCATAGC | 0.0754 |
| AGAACAGC | 0.145 |
| GAACACGC | 0.299 |
| CTAATCTA | 0.021 |
| CTGCTGAC | -0.0195 |
